# Some of the results follow.
# What was measured:
# HSkMC = human skeletal muscle cells; experiment: cytotoxicity call (relative viability < 0.9); details: 10 µM
# HepG2 = experiment: cytotoxicity call (relative viability < 0.9); details: 10 µM
# S. aureus RN4220 = experiment: growth inhibition call (relative growth <= 0.2); details: 50 µM
SMILES,cytotoxicity call (HSkMC),cytotoxicity call (HepG2),growth inhibition call (S. aureus RN4220)
CCNC(=O)C[C@H]1C=C[C@@H](NC(=O)C2CCOCC2)[C@@H](CO)O1,inactive,inactive,inactive
C[C@@H]1CCCCO[C@H](CN(C)C(=O)Nc2cccc3ccccc23)[C@@H](C)CN([C@H](C)CO)C(=O)c2cc(NC(=O)Nc3ccc4c(c3)OCO4)ccc2O1,inactive,inactive,inactive
C[C@H]1CN([C@@H](C)CO)S(=O)(=O)c2ccc(C3=CCCC3)cc2O[C@H]1CN(C)C(=O)C1CCOCC1,inactive,inactive,inactive
C[C@H]1CN([C@@H](C)CO)C(=O)c2cc(NC(=O)Nc3ccc4c(c3)OCO4)ccc2O[C@H]1CN(C)C(=O)Nc1cccc2ccccc12,inactive,inactive,inactive
O=C(C[C@H]1CC[C@H](NC(=O)CN2CCOCC2)[C@H](CO)O1)NCCc1ccncc1,inactive,inactive,inactive
COc1cc2nc(N3CCN(C(=O)C4COc5ccccc5O4)CC3)nc(N)c2cc1OC.CS(=O)(=O)O (centres undefined),inactive,inactive,inactive
C[C@@H]1CN([C@H](C)CO)C(=O)c2cc(NC(=O)c3ccncc3)ccc2O[C@@H](C)CCCCO[C@@H]1CN(C)Cc1ccc(C(F)(F)F)cc1,inactive,inactive,inactive
COc1ccc(NC(=O)N(C)C[C@H]2Oc3cc(C#CCN(C)C)ccc3S(=O)(=O)N([C@H](C)CO)C[C@H]2C)cc1,inactive,inactive,inactive
O=C(C[C@H]1C[C@@H]2c3cc(NS(=O)(=O)c4ccccc4)ccc3O[C@@H]2[C@@H](CO)O1)NCC(F)(F)F,inactive,inactive,inactive
C[C@H](CO)N1C[C@H](C)[C@@H](CN(C)S(C)(=O)=O)Oc2ccc(NC(=O)Nc3ccccc3)cc2C1=O,inactive,inactive,inactive
COc1ccc(S(=O)(=O)N(C)C[C@H]2Oc3ccc(NS(=O)(=O)c4cn(C)cn4)cc3CC(=O)N([C@H](C)CO)C[C@@H]2C)cc1,inactive,inactive,inactive
C[C@@H]1CN([C@@H](C)CO)C(=O)c2cc(C#CC3(O)CCCC3)cnc2O[C@@H]1CN(C)S(=O)(=O)c1cccc(F)c1,inactive,inactive,inactive
C[C@@H]1CN([C@@H](C)CO)C(=O)c2cc(NC(=O)NC3CCCCC3)ccc2O[C@@H]1CN(C)S(C)(=O)=O,inactive,inactive,inactive
C[C@@H]1CCCCO[C@H](CN(C)C(=O)NC2CCCCC2)[C@@H](C)CN([C@@H](C)CO)C(=O)c2cc(NC(=O)C3CCCCC3)ccc2O1,inactive,inactive,inactive
Cc1ccc(Nc2nc3ccccc3s2)cc1Cl,inactive,inactive,inactive
CCNC(=O)C[C@H]1C=C[C@@H](NC(=O)C2CCOCC2)[C@H](CO)O1,inactive,inactive,inactive
C[C@H](CO)N1C[C@H](C)[C@H](CN(C)C(=O)c2ccccc2)OCCCC[C@H](C)Oc2ccc(NS(=O)(=O)c3cccs3)cc2C1=O,inactive,inactive,inactive
O=C(C[C@H]1C=C[C@@H](NS(=O)(=O)c2ccc(F)cc2)[C@H](CO)O1)NCCN1CCCCC1,inactive,inactive,inactive
C[C@H]([C@@H](N)C(=O)N[C@H](C(=O)O)[C@H]1O[C@@H](n2ccc(O)cc2=O)[C@@H](O)[C@H]1O)[C@@H](C)c1ccc(O)cn1,inactive,inactive,inactive
C[C@H](CO)N1C[C@H](C)[C@H](CN(C)C(=O)Nc2cccc3ccccc23)Oc2ccc(NC(=O)Cc3ccccc3)cc2CC1=O,inactive,inactive,inactive
COc1ccc(S(=O)(=O)Nc2ccc3c(c2)C(=O)N([C@H](C)CO)C[C@@H](C)[C@@H](CN(C)S(=O)(=O)c2c(C)noc2C)O3)cc1,inactive,inactive,inactive
NCc1ccc(C(=O)N2CCCC2)cc1,inactive,inactive,inactive
C[C@H](CO)N1C[C@H](C)[C@@H](CN(C)C(=O)Nc2ccccc2C(F)(F)F)OCc2ccccc2-c2c(n(C)c3ccccc23)C1=O,inactive,active,inactive
COCC(=O)Nc1ccccc1C(=O)O,inactive,inactive,inactive
C[C@H](CO)N1C[C@H](C)[C@H](CN(C)C(=O)Nc2cccc(F)c2)OCc2ccccc2-c2ccccc2C1=O,inactive,inactive,inactive
C[C@H](CO)N1C[C@H](C)[C@@H](CN(C)C(=O)c2ccccc2)OCCCC[C@H](C)Oc2ccc(NC(=O)Nc3ccc4c(c3)OCO4)cc2C1=O,inactive,inactive,inactive
C[C@@H]1CN([C@H](C)CO)C(=O)Cc2cc(NS(C)(=O)=O)ccc2O[C@H]1CN(C)S(=O)(=O)c1ccccc1,inactive,inactive,inactive
C[C@H](CO)N1C[C@H](C)[C@@H](CN(C)S(C)(=O)=O)Oc2c(NC(=O)c3cnccn3)cccc2C1=O,inactive,inactive,inactive
